Data on 66 compounds can be found in publication PMC6919601, “Identification of Plasmodium dipeptidyl aminopeptidase allosteric inhibitors by high throughput screening” (PLoS ONE, 2019).

Screen size: about 110,000 compounds; about 230 (0.21%) showed an effect of 50% or more. This is one part of the list.
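Also: 30 min substrate incubation versus DMSO and 10 µM JCP410 controls.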

The experiment deals with DPAP1 (Plasmodium falciparum, UniProt Q8IIJ9). The experiment in a line: primary screen, percent inhibition; read by cleavage of a fluorogenic dipeptide substrate; higher = more effect of the substance. Also on record: species or system P. falciparum D10 trophozoite lysates; single well.
DPAP1, sequence (Q8IIJ9 whole entry, looked up): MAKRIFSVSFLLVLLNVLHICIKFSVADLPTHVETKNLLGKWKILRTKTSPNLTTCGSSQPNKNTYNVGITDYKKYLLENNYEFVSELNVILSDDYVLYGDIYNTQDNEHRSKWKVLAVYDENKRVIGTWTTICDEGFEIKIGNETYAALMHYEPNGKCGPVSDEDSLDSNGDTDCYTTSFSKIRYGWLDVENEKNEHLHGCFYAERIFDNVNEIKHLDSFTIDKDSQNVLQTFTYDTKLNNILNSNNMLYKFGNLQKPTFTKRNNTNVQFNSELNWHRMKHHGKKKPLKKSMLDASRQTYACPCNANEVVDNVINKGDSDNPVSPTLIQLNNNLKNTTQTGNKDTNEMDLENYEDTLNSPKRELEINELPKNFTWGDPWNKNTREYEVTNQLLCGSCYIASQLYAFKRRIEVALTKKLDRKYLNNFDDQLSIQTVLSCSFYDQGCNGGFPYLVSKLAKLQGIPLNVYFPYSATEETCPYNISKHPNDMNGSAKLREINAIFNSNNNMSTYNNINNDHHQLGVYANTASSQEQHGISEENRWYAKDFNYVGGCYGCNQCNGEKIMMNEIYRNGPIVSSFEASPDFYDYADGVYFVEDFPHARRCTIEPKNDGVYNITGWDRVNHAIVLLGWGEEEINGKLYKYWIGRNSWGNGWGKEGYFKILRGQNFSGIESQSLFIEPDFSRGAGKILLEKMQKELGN
Consider `OC1CCCN(Cc2c(F)cccc2Cl)C1` (stereo not drawn), for which the “% Inhibition @ 10 uM” value is reported as -1.5%.

Turning to `CCCCc1nnc(NC(=O)c2sc(C)nc2C)s1`, the “% Inhibition @ 10 uM” value was -0.946%.

As to `COc1ccc(-c2nc(Nc3cnc(SC)nc3)sc2C)cc1`, the “% Inhibition @ 10 uM” value is -4.19%.

As to `CC(=O)N1N=C2/C(=C/c3ccccc3)CCCC2C1c1ccccc1` (stereo not drawn), the “% Inhibition @ 10 uM” value is -5.5%.

Turning to `CC1CC(C)CN(CCCNC(=O)CNC(=O)Cn2ccc3ccccc3c2=O)C1` (stereo not drawn), the “% Inhibition @ 10 uM” value is listed as -4.06%.

As for `Clc1cccc(-c2ncnn2-c2ccc(Br)cn2)c1Cl`, the “% Inhibition @ 10 uM” value is listed as -4.32%.

On to `Cc1ccc(NCC(O)COc2ccc(OCC(O)CNc3ccc(C)cc3)cc2)cc1` (stereo not drawn), for which the “% Inhibition @ 10 uM” value turned out to be 0.565%.

In the case of `O=C1NC(=O)/C(=C/C(=O)c2ccccc2)N1`, the “% Inhibition @ 10 uM” value is reported as 3.15%.

Consider `CCOc1ccccc1NC(=O)C1=C(C)NC(=O)NC1c1ccc(Br)cc1` (stereo not drawn), for which the “% Inhibition @ 10 uM” value is reported as -0.865%.

As to `Cc1ccc(C)n1-c1cc(C(=O)O)cc(C(=O)O)c1`, the “% Inhibition @ 10 uM” value stood at 1.26%.

Turning to `Cc1cccc(CCNC(=O)C(NS(=O)(=O)c2cccc3nsnc23)c2ccccc2)c1` (stereo not drawn), the “% Inhibition @ 10 uM” value is listed as -3.23%.

`NC(=O)C1CCN(C2CCSC2)CC1` (stereo not drawn): the “% Inhibition @ 10 uM” value is reported as -5.44%.

As to `O=C1NC(c2ccc(Br)cc2)=N/C1=C/c1ccc(Cl)cc1Cl`, the “% Inhibition @ 10 uM” value is -1.98%.

For `O=C(Nc1ccccn1)c1noc2c1CSc1ccccc1-2`, the “% Inhibition @ 10 uM” value is listed as -1.72%.

With `CCOC(=O)c1c(N)sc2c1CCc1ccccc1-2`, the “% Inhibition @ 10 uM” value worked out at 18.3%.

Turning to `CCC(C)C(NCCC(=O)c1ccc(Br)cc1)C(=O)O` (stereo not drawn), the “% Inhibition @ 10 uM” value is listed as -7.23%.

Regarding `N#CC1=C(N)N(c2ccc(Br)cc2)C2=C(C(=O)CCC2)C1c1ccsc1` (stereo not drawn), the “% Inhibition @ 10 uM” value is 6.84%.

Regarding `Cn1cnc2c(=O)oc3ccc(S(=O)(=O)N4CCc5ccccc5C4)cc3c21`, the “% Inhibition @ 10 uM” value was -5.73%.

As to `O=C(NC1CCCCCC1)c1ccc(Cl)c([N+](=O)[O-])c1`, the “% Inhibition @ 10 uM” value is recorded as -4.3%.

As to `CCN(CC)CCN1C(=O)C(O)=C(C(=O)c2ccc(F)cc2)C1c1ccc(C)cc1` (stereo not drawn), the “% Inhibition @ 10 uM” value is given as 1.02%.

`CCOC(=O)c1ccc(NC(=O)C2CC2(c2ccccc2)c2ccccc2)cc1` (stereo not drawn): the “% Inhibition @ 10 uM” value is recorded as -5.78%.

As to `CCn1c2ccccc2c2cc(CN3CCC(O)CC3)ccc21`, the “% Inhibition @ 10 uM” value is given as 4.04%.

Turning to `COc1ccc(OC)c(-n2c(SCC(=O)NCc3ccco3)nnc2-c2c[nH]c3ccccc23)c1`, the “% Inhibition @ 10 uM” value is reported as -1.3%.

Consider `CCOC(=O)C1=NNCC1C(=O)OCC` (stereo not drawn), for which the “% Inhibition @ 10 uM” value is on record as -4.06%.

In the case of `COc1ccc(CN2CCN(Cc3ccc(Cl)cc3)CC2)c(OC)c1`, the “% Inhibition @ 10 uM” value is 10.1%.

As for `C=CCN1C(=S)NC2c3cccc(OCC)c3OC1(C)C2C` (stereo not drawn), the “% Inhibition @ 10 uM” value is 0.813%.

With `CC1CCN(C(=O)Cn2cccc2C(=O)c2ccccc2)CC1`, the “% Inhibition @ 10 uM” value is on record as 0.0882%.

Consider `CC1=C(C(=O)OCCc2ccccc2)C(c2coc3ccccc3c2=O)C2=C(O)CC(C)(C)CC2=N1` (stereo not drawn), for which the “% Inhibition @ 10 uM” value is 18.2%.

Consider `Nc1ccc2[nH]c(-c3ccco3)nc2c1`, for which the “% Inhibition @ 10 uM” value amounted to 5.31%.

Take `C/C=C(\C)CN1CCN(c2ccccc2F)CC1`: the “% Inhibition @ 10 uM” value came out at 2.7%.

Turning to `COc1ccccc1C1C(C#N)=C(N)Oc2[nH]nc(-c3ccccc3)c21` (stereo not drawn), the “% Inhibition @ 10 uM” value is -2.78%.

In the case of `Cc1ccc(NC(=O)c2cccc(Cl)c2)nc1`, the “% Inhibition @ 10 uM” value came to 3.24%.

On to `O=C(O)c1ccc(CNC2CCCCC2)s1`, for which the “% Inhibition @ 10 uM” value is -3.61%.

`COc1ccc2c(c1)CCC1C2=NN(C(C)=O)C1c1ccc([N+](=O)[O-])cc1` (stereo not drawn): the “% Inhibition @ 10 uM” value is reported as 0.937%.

As for `CC(C)(C)n1ncc2c(=O)n(CC(=O)c3ccc(Cl)cc3)cnc21`, the “% Inhibition @ 10 uM” value was -0.0309%.

As to `CCOC(=O)c1ccc(CNCc2cccc(OCc3ccccc3)c2)cc1`, the “% Inhibition @ 10 uM” value was -5.88%.

In the case of `COc1ccc(OC)c(CCNC(=O)C(C)n2nc(C)c3sc4ccccc4c3c2=O)c1` (stereo not drawn), the “% Inhibition @ 10 uM” value is -3.93%.

Turning to `Cc1cc(C)nc(/N=C(\N)Nc2ccc(F)cc2)n1`, the “% Inhibition @ 10 uM” value was -2.07%.

For `Nc1nc(CN2CCN(c3ccccc3)CC2)nc(Nc2ccccc2)n1`, the “% Inhibition @ 10 uM” value is -0.872%.

Consider `Cc1cc(C)cc(OCCCCc2c(C)n[nH]c2C)c1`, for which the “% Inhibition @ 10 uM” value is recorded as -0.569%.

For the compound `COc1ccc(-c2csc(Nc3cccc4ccccc34)n2)cc1F`, the “% Inhibition @ 10 uM” value is listed as -2%.

On to `Cc1ccc(C2C(C#N)=C(N)Oc3[nH]nc(-c4ccc(Br)cc4)c32)o1` (stereo not drawn), for which the “% Inhibition @ 10 uM” value is -2.77%.

`CC(C(=O)N1CCc2ccccc2C1)n1ncc2ccccc21` (stereo not drawn): the “% Inhibition @ 10 uM” value came out at 2.04%.

Take `CC1=C(C(=O)OCc2ccccc2)C(c2ccccc2Br)NC(=O)N1` (stereo not drawn): the “% Inhibition @ 10 uM” value is -0.687%.

With `CC1=C(C(=O)OCCOC(C)C)C(c2cccc(Cl)c2Cl)CC(=O)N1` (stereo not drawn), the “% Inhibition @ 10 uM” value was 4.23%.

For the compound `Cc1c(CC(=O)NCCc2ccccc2)c(=O)oc2cc(O)c(Cl)cc12`, the “% Inhibition @ 10 uM” value is -2.57%.

Regarding `Cc1cccc(C)c1NC(=O)C(NC(=O)CN1C(=O)c2ccccc2C1=O)c1ccc(Cl)cc1` (stereo not drawn), the “% Inhibition @ 10 uM” value is -3.98%.

As for `Cc1ccc(-c2nn(CC(=O)NCc3cccnc3)c(=O)c3ccccc23)cc1`, the “% Inhibition @ 10 uM” value is on record as -5.03%.

Consider `COCCn1c(SCC(N)=O)nc2c(oc3ccccc32)c1=O`, for which the “% Inhibition @ 10 uM” value was -4.34%.

On to `CCCN1Cc2cccc(C(=O)NCc3ccc(F)cc3)c2C1=O`, for which the “% Inhibition @ 10 uM” value was found to be 1.23%.

With `COc1ccc(C2(CCNCc3ccc(N(C)C)cc3)CCOC(C)(C)C2)cc1` (stereo not drawn), the “% Inhibition @ 10 uM” value came out at 17.5%.

Regarding `O=[N+]([O-])c1ccc(S(=O)(=O)N2CCC(Cc3ccccc3)CC2)cc1`, the “% Inhibition @ 10 uM” value amounted to 7.13%.

On to `CN1CSC2=C(C#N)C(c3ccccc3)CC(=O)N2C1` (stereo not drawn), for which the “% Inhibition @ 10 uM” value was found to be 32.9%.

In the case of `O=S(=O)(Nc1nccs1)c1ccc(NC(=S)Nc2ccccc2)cc1`, the “% Inhibition @ 10 uM” value came to 1.33%.

For `O=S(=O)(Nc1ccccc1/N=C/C1=C(O)c2ccccc2CC1)c1ccccc1`, the “% Inhibition @ 10 uM” value was 3.05%.

On to `c1nc(N2CCCCCC2)c2nc3n(c2n1)CCC3`, for which the “% Inhibition @ 10 uM” value came to 4.28%.

Consider `O=C(CN1C(=O)CSc2ncccc21)NCc1ccccn1`, for which the “% Inhibition @ 10 uM” value was 1.03%.

Consider `CCn1c(C(O)c2cccc3ccccc23)nc2ccccc21` (stereo not drawn), for which the “% Inhibition @ 10 uM” value is recorded as 0.345%.

As to `Cc1cccc(OCCSc2ncnc3[nH]cnc23)c1`, the “% Inhibition @ 10 uM” value is reported as 14.9%.

Consider `O=C(CSc1ccc(-c2cccs2)nn1)N1CCOCC1`, for which the “% Inhibition @ 10 uM” value is given as 5.85%.

On to `Cc1ccc(C2=NN=C(NC(=O)C(F)(F)F)SC2)cc1`, for which the “% Inhibition @ 10 uM” value is recorded as -0.551%.

As to `Cn1c2ccccc2c2c(C(=O)N3CCCCC3)cn(C3CCCCC3)c(=O)c21`, the “% Inhibition @ 10 uM” value was 6.59%.

Regarding `COC(=O)c1cc2c(C)nn(-c3ccccc3)c2s1`, the “% Inhibition @ 10 uM” value turned out to be 4.7%.

Turning to `CC(C)(C)c1ccc(C(=O)Nc2cccc(Cl)c2)cc1`, the “% Inhibition @ 10 uM” value is listed as 0.98%.

For `O=C1c2cccc3cccc(c23)N1CN1CCN(c2ccc(F)cc2)CC1`, the “% Inhibition @ 10 uM” value was 1.87%.

With `Cc1ccc(-c2cc(C(=O)Nc3ccc(F)cc3)c3ccccc3n2)o1`, the “% Inhibition @ 10 uM” value is on record as -1.22%.
